This is one part of the list. The list includes weakly bound sequences.
Each sequence was assayed against T1, MBP-FoxP3dN (UniProt Q99JB6) (assay: PD-seq (MBP pull-down with sequencing)). Settings: 20 mM Tris-HCl pH 7.5, 100 mM NaCl, 1.5 mM MgCl2, 0.4 uM protein, 0.1 uM dsDNA library, 30 min, room temperature, amylose pull-down; high values mean tight binding; double strand, one strand shown.
T1 sequence: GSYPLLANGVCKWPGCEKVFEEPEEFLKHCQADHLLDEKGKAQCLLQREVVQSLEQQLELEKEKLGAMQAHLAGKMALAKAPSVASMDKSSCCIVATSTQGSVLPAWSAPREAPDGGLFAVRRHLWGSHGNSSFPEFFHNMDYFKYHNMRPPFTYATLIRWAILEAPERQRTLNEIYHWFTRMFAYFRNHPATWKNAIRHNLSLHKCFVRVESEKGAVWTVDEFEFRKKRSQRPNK

Sequence | binding signal (RPM ratio (pull-down/input))
GATGATTGTTCTCCCAGCTGATGAATTCGTGTTTTCGAGTAAACAAATTTTCCTAATCTTTCTGTTCAAGCGCCATCTAC | 1.7
GATGATTGTTCTCCCAGCTGATGAATTGATGCCATCGAGTAAACAAATTTTCCTAATCTTTCTGTTCAAGCGCCATCTAC | 3.67
GATGATTGTTCTCCCAGCTGATGAATTTGCTTCCTCGAGTAAACAAATTTTCCTAATCTTTCTGTTCAAGCGCCATCTAC | 3.03
GATGATTGTTCTCCCAGCTGATGAATTCCCCGATTCGAGTAAACAAATTTTCCTAATCTTTCTGTTCAAGCGCCATCTAC | 0.223
GATGATTGTTCTCCCAGCTGATGAATTCATTTTATCGAGTAAACAAATTTTCCTAATCTTTCTGTTCAAGCGCCATCTAC | 0.661
GATGATTGTTCTCCCAGCTGATGAATTCGCACGGTCGAGTAAACAAATTTTCCTAATCTTTCTGTTCAAGCGCCATCTAC | 0.315
GATGATTGTTCTCCCAGCTGATGAATTAAAGAGATCGAGTAAACAAATTTTCCTAATCTTTCTGTTCAAGCGCCATCTAC | 0.203
GATGATTGTTCTCCCAGCTGATGAATTGAGACGATCGAGTAAACAAATTTTCCTAATCTTTCTGTTCAAGCGCCATCTAC | 0.262
GATGATTGTTCTCCCAGCTGATGAATTGTTGAATTCGAGTAAACAAATTTTCCTAATCTTTCTGTTCAAGCGCCATCTAC | 1
GATGATTGTTCTCCCAGCTGATGAATTACTACCTTCGAGTAAACAAATTTTCCTAATCTTTCTGTTCAAGCGCCATCTAC | 0.368
GATGATTGTTCTCCCAGCTGATGAATTTTATGAATCGAGTAAACAAATTTTCCTAATCTTTCTGTTCAAGCGCCATCTAC | 0.331
GATGATTGTTCTCCCAGCTGATGAATTGGGAGTCTCGAGTAAACAAATTTTCCTAATCTTTCTGTTCAAGCGCCATCTAC | 0.948
GATGATTGTTCTCCCAGCTGATGAATTGCTCCACTCGAGTAAACAAATTTTCCTAATCTTTCTGTTCAAGCGCCATCTAC | 0.477
GATGATTGTTCTCCCAGCTGATGAATTAGGCTACTCGAGTAAACAAATTTTCCTAATCTTTCTGTTCAAGCGCCATCTAC | 1.44
GATGATTGTTCTCCCAGCTGATGAATTACGTGCTTCGAGTAAACAAATTTTCCTAATCTTTCTGTTCAAGCGCCATCTAC | 0.637
GATGATTGTTCTCCCAGCTGATGAATTACGTGGGTCGAGTAAACAAATTTTCCTAATCTTTCTGTTCAAGCGCCATCTAC | 0.527
GATGATTGTTCTCCCAGCTGATGAATTACGCAGATCGAGTAAACAAATTTTCCTAATCTTTCTGTTCAAGCGCCATCTAC | 0.504
GATGATTGTTCTCCCAGCTGATGAATTACAAGTCTCGAGTAAACAAATTTTCCTAATCTTTCTGTTCAAGCGCCATCTAC | 0.573
GATGATTGTTCTCCCAGCTGATGAATTGTTGGTGTCGAGTAAACAAATTTTCCTAATCTTTCTGTTCAAGCGCCATCTAC | 4.72
GATGATTGTTCTCCCAGCTGATGAATTAACGCCTTCGAGTAAACAAATTTTCCTAATCTTTCTGTTCAAGCGCCATCTAC | 2.79
GATGATTGTTCTCCCAGCTGATGAATTCGGTTTCTCGAGTAAACAAATTTTCCTAATCTTTCTGTTCAAGCGCCATCTAC | 1.31

Sequence | binding signal (RPM ratio (pull-down/input))
GATGATTGTTCTCCCAGCTGATGAATTGATTAGGTCGAGTAAACAAATTTTCCTAATCTTTCTGTTCAAGCGCCATCTAC | 0.663
GATGATTGTTCTCCCAGCTGATGAATTTACATCTTCGAGTAAACAAATTTTCCTAATCTTTCTGTTCAAGCGCCATCTAC | 0.678
GATGATTGTTCTCCCAGCTGATGAATTTTTGCGGTCGAGTAAACAAATTTTCCTAATCTTTCTGTTCAAGCGCCATCTAC | 0.357
GATGATTGTTCTCCCAGCTGATGAATTACGACTATCGAGTAAACAAATTTTCCTAATCTTTCTGTTCAAGCGCCATCTAC | 0.727
GATGATTGTTCTCCCAGCTGATGAATTGCACTGTTCGAGTAAACAAATTTTCCTAATCTTTCTGTTCAAGCGCCATCTAC | 1.07
GATGATTGTTCTCCCAGCTGATGAATTCCCGGGGTCGAGTAAACAAATTTTCCTAATCTTTCTGTTCAAGCGCCATCTAC | 0.178
GATGATTGTTCTCCCAGCTGATGAATTGAGATAATCGAGTAAACAAATTTTCCTAATCTTTCTGTTCAAGCGCCATCTAC | 0.341
GATGATTGTTCTCCCAGCTGATGAATTTCTTGCGTCGAGTAAACAAATTTTCCTAATCTTTCTGTTCAAGCGCCATCTAC | 0.535
GATGATTGTTCTCCCAGCTGATGAATTTTCTAGATCGAGTAAACAAATTTTCCTAATCTTTCTGTTCAAGCGCCATCTAC | 0.194
GATGATTGTTCTCCCAGCTGATGAATTCGTAGGTTCGAGTAAACAAATTTTCCTAATCTTTCTGTTCAAGCGCCATCTAC | 0.632
GATGATTGTTCTCCCAGCTGATGAATTTGCAAAGTCGAGTAAACAAATTTTCCTAATCTTTCTGTTCAAGCGCCATCTAC | 0.313
GATGATTGTTCTCCCAGCTGATGAATTCGGTTGGTCGAGTAAACAAATTTTCCTAATCTTTCTGTTCAAGCGCCATCTAC | 1.95
GATGATTGTTCTCCCAGCTGATGAATTGTATGCCTCGAGTAAACAAATTTTCCTAATCTTTCTGTTCAAGCGCCATCTAC | 2.07
GATGATTGTTCTCCCAGCTGATGAATTGTCATTATCGAGTAAACAAATTTTCCTAATCTTTCTGTTCAAGCGCCATCTAC | 1.22
GATGATTGTTCTCCCAGCTGATGAATTACGCCTATCGAGTAAACAAATTTTCCTAATCTTTCTGTTCAAGCGCCATCTAC | 2.64
GATGATTGTTCTCCCAGCTGATGAATTATACCTGTCGAGTAAACAAATTTTCCTAATCTTTCTGTTCAAGCGCCATCTAC | 0.42
GATGATTGTTCTCCCAGCTGATGAATTCCTATACTCGAGTAAACAAATTTTCCTAATCTTTCTGTTCAAGCGCCATCTAC | 0.361
GATGATTGTTCTCCCAGCTGATGAATTACGCGCGTCGAGTAAACAAATTTTCCTAATCTTTCTGTTCAAGCGCCATCTAC | 1.87
GATGATTGTTCTCCCAGCTGATGAATTATTTAAGTCGAGTAAACAAATTTTCCTAATCTTTCTGTTCAAGCGCCATCTAC | 0.317
GATGATTGTTCTCCCAGCTGATGAATTGATTCATTCGAGTAAACAAATTTTCCTAATCTTTCTGTTCAAGCGCCATCTAC | 0.392
GATGATTGTTCTCCCAGCTGATGAATTCAAGCATTCGAGTAAACAAATTTTCCTAATCTTTCTGTTCAAGCGCCATCTAC | 4.27

Sequence | binding signal (RPM ratio (pull-down/input))
GATGATTGTTCTCCCAGCTGATGAATTTCATTTGTCGAGTAAACAAATTTTCCTAATCTTTCTGTTCAAGCGCCATCTAC | 2.23
GATGATTGTTCTCCCAGCTGATGAATTCGCTAAGTCGAGTAAACAAATTTTCCTAATCTTTCTGTTCAAGCGCCATCTAC | 0.247
GATGATTGTTCTCCCAGCTGATGAATTTTTGGGATCGAGTAAACAAATTTTCCTAATCTTTCTGTTCAAGCGCCATCTAC | 0.223
GATGATTGTTCTCCCAGCTGATGAATTGGGTATGTCGAGTAAACAAATTTTCCTAATCTTTCTGTTCAAGCGCCATCTAC | 1.31
GATGATTGTTCTCCCAGCTGATGAATTAATTGTATCGAGTAAACAAATTTTCCTAATCTTTCTGTTCAAGCGCCATCTAC | 2.09
GATGATTGTTCTCCCAGCTGATGAATTTGCACGCTCGAGTAAACAAATTTTCCTAATCTTTCTGTTCAAGCGCCATCTAC | 0.749
GATGATTGTTCTCCCAGCTGATGAATTGTCTCCCTCGAGTAAACAAATTTTCCTAATCTTTCTGTTCAAGCGCCATCTAC | 0.385
GATGATTGTTCTCCCAGCTGATGAATTGTCGAGTTCGAGTAAACAAATTTTCCTAATCTTTCTGTTCAAGCGCCATCTAC | 0.479
GATGATTGTTCTCCCAGCTGATGAATTACGAGACTCGAGTAAACAAATTTTCCTAATCTTTCTGTTCAAGCGCCATCTAC | 0.531
GATGATTGTTCTCCCAGCTGATGAATTGGTAAAGTCGAGTAAACAAATTTTCCTAATCTTTCTGTTCAAGCGCCATCTAC | 0.275
GATGATTGTTCTCCCAGCTGATGAATTCCAACAGTCGAGTAAACAAATTTTCCTAATCTTTCTGTTCAAGCGCCATCTAC | 0.296
GATGATTGTTCTCCCAGCTGATGAATTCAGCTATTCGAGTAAACAAATTTTCCTAATCTTTCTGTTCAAGCGCCATCTAC | 1.78
GATGATTGTTCTCCCAGCTGATGAATTCTACGATTCGAGTAAACAAATTTTCCTAATCTTTCTGTTCAAGCGCCATCTAC | 0.257
GATGATTGTTCTCCCAGCTGATGAATTAAAGACATCGAGTAAACAAATTTTCCTAATCTTTCTGTTCAAGCGCCATCTAC | 0.385
GATGATTGTTCTCCCAGCTGATGAATTCCCCCAGTCGAGTAAACAAATTTTCCTAATCTTTCTGTTCAAGCGCCATCTAC | 0.148
GATGATTGTTCTCCCAGCTGATGAATTTAGAAATTCGAGTAAACAAATTTTCCTAATCTTTCTGTTCAAGCGCCATCTAC | 0.524
GATGATTGTTCTCCCAGCTGATGAATTCCGGGCATCGAGTAAACAAATTTTCCTAATCTTTCTGTTCAAGCGCCATCTAC | 0.549
GATGATTGTTCTCCCAGCTGATGAATTACATTTTTCGAGTAAACAAATTTTCCTAATCTTTCTGTTCAAGCGCCATCTAC | 0.69
GATGATTGTTCTCCCAGCTGATGAATTCCTCGTATCGAGTAAACAAATTTTCCTAATCTTTCTGTTCAAGCGCCATCTAC | 0.403
GATGATTGTTCTCCCAGCTGATGAATTCCGTTATTCGAGTAAACAAATTTTCCTAATCTTTCTGTTCAAGCGCCATCTAC | 2.48
GATGATTGTTCTCCCAGCTGATGAATTTGTCTGTTCGAGTAAACAAATTTTCCTAATCTTTCTGTTCAAGCGCCATCTAC | 3.84

From paper PMC12820563
